Test results taken from PubChem BioAssay (Tox21).
Values joined by “and” are separate entries in the source; they are usually repeats but may differ in a detail not shown here. Equal values may be shown once. The source holds several records for some structures; these can differ, active in one and inactive in another. Active and inactive are the calls of the source. Unless noted, calls come from the whole dose curve; as a rule, active = well fitted curve in the direction sought with a large enough effect in the repeat runs; inconclusive = weak or mixed curves; inactive = no such curve, though single readings can be large; an effect the other way counts as inactive or inconclusive.

Key:
[1] = qHTS assay to identify small molecule antagonists of the androgen receptor (AR) signaling pathway using the MDA cell line - cell viability counter screen (AID 743041; note: nearly all actives have a fitted effect of over 45% in size; for viability change, negative = cytotoxic: % is set by controls: 0 for no effect and ±100 for the full control effect); details: MDA-kb2 viability, CellTiter-Fluor, 16 h, cells co-treated with R1881 androgen agonist; viability change, negative = cytotoxic: at 70.3 µM (top of the series) unless noted
Outline: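 MDA-kb2 AR-luc cells (MMTV-luciferase, AR/GR responsive) treated with compounds plus R1881 agonist for 16 h at 37C. CellTiter-Fluor added at 15.5 h; fluorescence read after 30 min in the same wells.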

[2] = qHTS assay to identify small molecule antagonists of the thyroid receptor (TR) signaling pathway - cell viability counter screen (AID 743064); details: GH3.TRE-Luc viability, CellTiter-Fluor, 24 h; activity change, negative = cytotoxic: at 70.3 µM (top of the series); note: nearly all actives have a fitted effect of over 50% in size
Outline: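 Same-well viability check: GH3.TRE-Luc cells stimulated with 1 nM T3 alongside test compound for 23.5 h, followed by CellTiter-Fluor fluorescence.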

[3] = molecular target: Estrogen receptor (Homo sapiens) (UniProt P03372); assay: qHTS assay to identify small molecule antagonists of the estrogen receptor alpha (ER-alpha) signaling pathway (AID 743069; active = well fitted curve in the direction sought with a large enough effect in the signal ratio in the repeat runs, not every such curve was filed as active; inconclusive = weak or mixed curves, or effect the other way; inactive = no such curve, though single readings can be large or run the other way; the % refers to the signal ratio); details: HEK293 ER-alpha-UAS-bla, beta-lactamase ratio, antagonist mode; activity, negative = inhibition: at 69.4 µM (top of the series)
Sequence of UniProt P03372 (P03372 whole entry, looked up): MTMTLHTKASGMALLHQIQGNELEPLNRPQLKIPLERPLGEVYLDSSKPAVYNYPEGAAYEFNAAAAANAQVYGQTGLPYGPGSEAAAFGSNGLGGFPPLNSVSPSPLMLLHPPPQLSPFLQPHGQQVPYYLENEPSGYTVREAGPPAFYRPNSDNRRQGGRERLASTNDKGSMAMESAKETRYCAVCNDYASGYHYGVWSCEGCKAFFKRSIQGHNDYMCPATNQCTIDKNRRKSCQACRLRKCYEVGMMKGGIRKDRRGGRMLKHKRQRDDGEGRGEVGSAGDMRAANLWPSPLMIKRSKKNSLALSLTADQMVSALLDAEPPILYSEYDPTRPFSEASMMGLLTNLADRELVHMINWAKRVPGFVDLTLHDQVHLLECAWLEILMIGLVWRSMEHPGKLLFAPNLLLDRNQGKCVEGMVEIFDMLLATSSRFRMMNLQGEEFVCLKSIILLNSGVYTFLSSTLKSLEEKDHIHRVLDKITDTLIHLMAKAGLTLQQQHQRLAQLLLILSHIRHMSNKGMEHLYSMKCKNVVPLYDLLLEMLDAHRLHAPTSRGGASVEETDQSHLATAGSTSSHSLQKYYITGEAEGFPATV
Outline: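 HEK293 ER-alpha-UAS-bla GripTite cells, held overnight in 2% charcoal-stripped FBS, 5,000 cells/well, preincubated 4 h, then compound plus 17beta-estradiol for 18 h at 37C. Beta-lactamase read by LiveBLAzer B/G FRET substrate, 2 h at room temperature.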

[4] = molecular target: Estrogen receptor (Homo sapiens) (UniProt P03372); assay: qHTS assay to identify small molecule agonists of the estrogen receptor alpha (ER-alpha) signaling pathway (AID 743075; calls by dose curve; for activation: % is set by controls: 0 for no effect and ±100 for the full control effect); details: HEK293 ER-alpha-UAS-bla, beta-lactamase FRET ratio, 18 h; activation: at 70.1 µM (top of the series)
Aromatase (Homo sapiens) = Aromatase (Homo sapiens) (UniProt P11511); assay: qHTS assay to identify aromatase inhibitors (AID 743083); note: nearly all actives have a fitted effect of over 55% in size
Sequence of UniProt P11511 (P11511 whole entry, looked up): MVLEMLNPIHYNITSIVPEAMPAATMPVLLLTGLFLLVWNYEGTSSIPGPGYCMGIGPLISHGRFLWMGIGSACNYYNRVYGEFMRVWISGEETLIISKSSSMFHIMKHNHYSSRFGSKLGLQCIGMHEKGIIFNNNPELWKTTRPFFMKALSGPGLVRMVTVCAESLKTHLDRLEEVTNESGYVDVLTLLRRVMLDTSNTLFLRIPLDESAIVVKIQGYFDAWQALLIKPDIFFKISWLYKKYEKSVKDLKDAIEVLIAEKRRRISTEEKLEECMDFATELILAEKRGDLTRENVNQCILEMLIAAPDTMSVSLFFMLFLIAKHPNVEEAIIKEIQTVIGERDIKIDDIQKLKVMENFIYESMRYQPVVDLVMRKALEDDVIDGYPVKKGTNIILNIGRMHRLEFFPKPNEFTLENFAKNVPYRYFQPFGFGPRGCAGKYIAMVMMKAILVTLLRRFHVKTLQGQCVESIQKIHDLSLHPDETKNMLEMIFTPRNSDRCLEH

[5] = molecular target: Peroxisome proliferator-activated receptor gamma (Homo sapiens) (UniProt P37231); assay: qHTS assay to identify small molecule antagonists of the peroxisome proliferator-activated receptor gamma (PPARg) signaling pathway (AID 743191; calls by dose curve; note: nearly all actives have a fitted effect of over 30% in size; for ratio activity, negative = inhibition: % is set by controls: 0 for no effect and ±100 for the full control effect); details: HEK293H PPARg-UAS-bla, beta-lactamase ratio, antagonist, 17 h; ratio activity, negative = inhibition: at 62.6 µM (top of the series) unless noted
Sequence of UniProt P37231 (P37231 whole entry, looked up): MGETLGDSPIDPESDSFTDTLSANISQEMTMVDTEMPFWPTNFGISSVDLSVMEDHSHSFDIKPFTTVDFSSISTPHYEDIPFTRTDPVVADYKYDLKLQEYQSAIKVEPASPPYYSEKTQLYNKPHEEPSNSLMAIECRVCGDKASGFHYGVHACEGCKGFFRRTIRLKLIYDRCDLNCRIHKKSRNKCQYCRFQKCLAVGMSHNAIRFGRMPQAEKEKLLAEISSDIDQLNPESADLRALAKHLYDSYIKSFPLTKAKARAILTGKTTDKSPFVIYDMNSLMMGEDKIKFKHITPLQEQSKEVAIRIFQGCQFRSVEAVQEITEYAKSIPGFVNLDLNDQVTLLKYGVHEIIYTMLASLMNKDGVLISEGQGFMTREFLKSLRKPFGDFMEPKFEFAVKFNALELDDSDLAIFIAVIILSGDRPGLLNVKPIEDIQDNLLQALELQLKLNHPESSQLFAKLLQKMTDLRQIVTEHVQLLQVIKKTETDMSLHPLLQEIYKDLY
Outline: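 GeneBLAzer PPARg UAS-bla HEK293H cells, 5 h post-plating, exposed to compounds 17 h at 37C. LiveBLAzer B/G FRET substrate added for 1 h at room temperature; beta-lactamase reporter read by fluorescence intensity.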

[6] = qHTS assay to identify small molecule antagonists of the thyroid receptor (TR) signaling pathway (AID 743065); note: nearly all actives have a fitted effect of over 55% in size; for activity, negative = inhibition: % is set by controls: 0 for no effect and ±100 for the full control effect
Outline: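 GH3.TRE-Luc rat pituitary cells (two TREs driving luciferase) were dosed with compound, then stimulated with 1 nM T3 (final) for 23.5 h at 37 C. ONE-Glo luminescence was the read-out, with CellTiter-Fluor fluorescence as the cytotoxicity counter-screen.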

[7] = tested on: thyroid hormone receptor (rat, GH3 cells); assay: qHTS assay to identify small molecule agonists of the thyroid receptor (TR) signaling pathway (AID 743066; calls by dose curve); details: GH3.TRE-Luc cells, TR agonist luciferase, 24 h; activation: at 83.9 µM (top of the series) unless noted
[8] = qHTS assay to identify small molecule antagonists of the estrogen receptor alpha (ER-alpha) signaling pathway - cell viability counter screen (AID 743074; calls by dose curve;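 note: HEK293 cells carrying ER-alpha-UAS-bla reporter stimulated with 17beta-estradiol; nearly all actives have a fitted effect of over 45% in size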)
[9] = molecular target: Aryl hydrocarbon receptor (Homo sapiens) (UniProt P35869); assay: qHTS assay to identify small molecule that activate the aryl hydrocarbon receptor (AhR) signaling pathway (AID 743085); note: nearly all actives have a fitted effect of over 15% in size
Sequence of UniProt P35869 (P35869 whole entry, looked up): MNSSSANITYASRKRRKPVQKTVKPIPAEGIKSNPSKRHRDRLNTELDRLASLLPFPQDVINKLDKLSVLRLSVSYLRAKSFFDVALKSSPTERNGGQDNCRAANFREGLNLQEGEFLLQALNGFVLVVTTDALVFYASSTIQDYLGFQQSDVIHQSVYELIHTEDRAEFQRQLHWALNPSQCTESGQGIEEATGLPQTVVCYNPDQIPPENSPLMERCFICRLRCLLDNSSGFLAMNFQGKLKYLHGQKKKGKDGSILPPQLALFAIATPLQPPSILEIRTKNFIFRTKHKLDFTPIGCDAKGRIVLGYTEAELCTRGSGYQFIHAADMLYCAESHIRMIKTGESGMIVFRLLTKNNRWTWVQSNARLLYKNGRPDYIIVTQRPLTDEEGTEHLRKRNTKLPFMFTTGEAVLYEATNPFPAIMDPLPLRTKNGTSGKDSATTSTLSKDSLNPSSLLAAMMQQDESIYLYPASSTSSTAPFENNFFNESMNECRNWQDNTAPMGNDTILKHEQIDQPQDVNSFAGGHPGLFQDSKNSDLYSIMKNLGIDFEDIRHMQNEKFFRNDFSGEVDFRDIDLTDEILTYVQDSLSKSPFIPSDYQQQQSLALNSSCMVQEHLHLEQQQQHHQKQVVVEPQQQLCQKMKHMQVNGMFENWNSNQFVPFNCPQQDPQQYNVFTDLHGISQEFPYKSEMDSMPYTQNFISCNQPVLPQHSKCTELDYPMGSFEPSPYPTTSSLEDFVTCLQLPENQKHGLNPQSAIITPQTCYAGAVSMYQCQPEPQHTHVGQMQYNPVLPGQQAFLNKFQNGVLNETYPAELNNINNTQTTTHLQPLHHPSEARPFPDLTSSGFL
Outline: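 Reporter assay in engineered HepG2 line HG2L7.5c1, whose plasmid carries twenty dioxin responsive elements upstream of firefly luciferase. Treatment lasted 24 h at 37C; ONE-Glo luminescence gauged induction.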

[10] = qHTS assay to identify aromatase inhibitors - cell viability counter screen (AID 743084);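 note: cells stimulated with testosterone during compound exposure; nearly all actives have a fitted effect of over 55% in size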
[11] = molecular target: Estrogen receptor (Homo sapiens) (UniProt P03372); assay: qHTS assay to identify small molecule agonists of the estrogen receptor alpha (ER-alpha) signaling pathway using the BG1 cell line (AID 743079); details: BG1Luc4E2 cells, ERE-luciferase agonist, 22 h; activation: at 70.3 µM (top of the series) unless noted; note: nearly all actives have a fitted effect of over 20% in size
[12] = qHTS assay to identify small molecule antagonists of the estrogen receptor alpha (ER-alpha) signaling pathway using the BG1 cell line (AID 743080; calls by dose curve; note: nearly all actives have a fitted effect of over 25% in size); details: BG1Luc4E2 ERE-luciferase antagonist mode, luminescence
Outline: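 Antagonist mode: compounds in DMSO were pinned onto BG1-Luc-4E2 cells alongside 17beta-estradiol agonist, incubated 21.5 h, and ERE-driven luciferase measured with ONE-Glo. Cytotoxicity was multiplexed using CellTiter-Fluor fluorescence.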

[13] = qHTS assay to identify small molecule antagonists of the estrogen receptor alpha (ER-alpha) signaling pathway using the BG1 cell line - cell viability counter screen (AID 743081);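 note: compound given together with 17beta-estradiol as the ER stimulus; nearly all actives have a fitted effect of over 45% in size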
[14] = qHTS assay to identify small molecule that activate the aryl hydrocarbon receptor (AhR) signaling pathway - cell viability counter screen (AID 743086); note: nearly all actives have a fitted effect of over 45% in size
Outline: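 HepG2-AhR-luc (HG2L7.5c1) cells, 4000/well, treated 24 h at 37 C with compound; viability measured as CellTiter-Fluor fluorescence after 30 min in the same wells as the luciferase read.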

[15] = molecular target: Peroxisome proliferator-activated receptor gamma (Homo sapiens) (UniProt P37231); assay: qHTS assay to identify small molecule agonists of the peroxisome proliferator-activated receptor gamma (PPARg) signaling pathway (AID 743094; active = well fitted activation curve with a large enough effect in the signal ratio in the repeat runs, not every such curve was filed as active; inconclusive = weak or mixed curves, or effect the other way; inactive = no such curve, though single readings can be large or run the other way; the % refers to the signal ratio); details: HEK293H PPARg-UAS-bla, beta-lactamase FRET ratio, 17 h; activation: at 57 µM (top of the series) unless noted
Outline: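 Stably transfected HEK293H cells (GeneBLAzer PPARg UAS-bla) were incubated with test substances for 17 h at 37C after a 5 h pre-incubation; beta-lactamase activity was then detected by FRET substrate fluorescence.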

[16] = activity change, negative = inhibition: at 70.3 µM (top of the series) unless noted
Potency is the fitted concentration of half-maximal effect; tags give direction and shape of the fitted curve or compound fluorescence and quenching.

CC(C)OC(=O)C(O)(c1ccc(Cl)cc1)c1ccc(Cl)cc1
Potency [1]: inconclusive: 61.1 µM [cytotoxic, partial curve, poor fit]
Potency [2]: active: 61.1 µM
Potency [3]: active: 38.9 µM [inhibitor]
Potency [4]: inactive
Potency (Aromatase (Homo sapiens)): inconclusive: 54.5 µM [inhibitor, partial curve]
ratio activity, negative = inhibition [5]: inconclusive: -26.1%

C1=Cc2cccc3cccc1c23
Potency [1]: inactive
Potency [2]: inconclusive: 2.68 µM [rising, full curve, poor fit]
Potency [6]: inactive
Potency [7]: inconclusive: 30100 nM [activator, partial curve, poor fit]
Potency [8]: inconclusive: 60.6 µM [cytotoxic, single point]
Potency [9]: inconclusive: 67.4 µM [activator, single point] and inconclusive: 68.6 µM [activator]

CN(C)[C@@H]1C(=O)C(C(N)=O)=C(O)[C@@]2(O)C(=O)C3=C(O)c4c(O)ccc(Cl)c4[C@@](C)(O)[C@H]3C[C@@H]12
Potency [1]: inactive
Potency [2]: inactive
Potency [6]: inconclusive: 62.4 µM [inhibitor]
Potency [10]: inconclusive: 3.2 µM [rising, full curve, poor fit]

O=[N+]([O-])c1ccc(F)c([N+](=O)[O-])c1
Potency [1]: inconclusive: 33.5 µM [cytotoxic, single point] and active: 55 µM
Potency [2]: inconclusive: 55 µM [cytotoxic, partial curve, poor fit]
Potency [6]: inconclusive: 29.8 µM [inhibitor, partial curve, poor fit] and active: 61.7 µM
Potency [3]: inconclusive: 6.74 µM [activator, full curve, poor fit] and inconclusive: 19.7 µM [fluorescent, full curve]
Potency [8]: inconclusive: 2.48 µM [cytotoxic, full curve]
Potency [11]: inconclusive: 26.6 µM [inhibitor] and inconclusive: 27.6 µM [inhibitor, partial curve]
Potency [12, 16]: inconclusive: 18.8 µM [falling, partial curve] and inconclusive: 61.7 µM [falling, partial curve]
Potency [13]: active: 18.8 µM and active: 49 µM
Potency [9]: inconclusive: 4.9 µM [activator, full curve, poor fit]
Potency [14]: active: 49 µM
ratio activity, negative = inhibition [5]: inconclusive: -71.4% [at 81.1 µM]

C#CCOS(=O)OC1CCCCC1Oc1ccc(C(C)(C)C)cc1 (stereo not given)
Potency [1]: inconclusive: 6.12 µM [cytotoxic, full curve] and active: 4.33 µM
Potency [2]: inconclusive: 6.87 µM [cytotoxic, full curve, poor fit]
activation [7]: inconclusive: -10.4% [phenotype inactive]
Potency [3]: inconclusive: 777 nM [rising, full curve] and inconclusive: 9.77 µM [rising, full curve]
Potency [8]: inconclusive: 550 nM [cytotoxic, full curve] and inconclusive: 4.9 µM [cytotoxic, partial curve]
Potency [4]: active: 2.75 µM [inconclusive]
Potency [11]: inconclusive: 8.64 µM [inhibitor, full curve] and inconclusive: 8.63 µM [inhibitor, full curve]
Potency [13]: active: 27.3 µM and inconclusive: 34.4 µM [cytotoxic, single point]
Potency (Aromatase (Homo sapiens)): active: 15.4 µM and active: 6.86 µM
Potency [15]: inconclusive: 61.7 µM [rising, partial curve, poor fit]
activation [15]: inconclusive: -13%
Potency [5]: active: 43.6 µM
ratio activity, negative = inhibition [5]: inconclusive: 5.45%

CCC[CH2][Sn]([Cl])([CH2]CCC)[CH2]CCC
Potency [1]: active: 1.22 µM and active: 2.17 µM
Potency [2]: active: 307 nM and active: 386 nM
Potency [6]: active: 194 nM and active: 273 nM
Potency [7]: inconclusive: 7.7 nM [activator, full curve]
activation [7]: inconclusive: -7.94% [phenotype inactive]
Potency [3]: inconclusive: 4.37 µM [cytotoxic, full curve] and inconclusive: 54.9 µM [cytotoxic]
Potency [8]: active: 693 nM and active: 1.55 µM
Potency [11]: inconclusive: 217 nM [inhibitor, full curve] and inconclusive: 545 nM [inhibitor, full curve]
Potency [12, 16]: active: 274 nM and active: 486 nM
Potency [13]: active: 2.74 µM and active: 1.72 µM

Nc1ccc(-c2ccc(N)c(N)c2)cc1N
Potency [1]: inconclusive: 68.4 µM [cytotoxic, single point] and inconclusive: 24.3 µM [cytotoxic, partial curve, poor fit]
Potency [2]: inconclusive: 60.9 µM [cytotoxic]
activity change, negative = cytotoxic [2]: inconclusive: -30.3% [cytotoxic]
Potency [8]: inconclusive: 9.77 µM [rising, full curve, poor fit]
Potency [13]: inconclusive: 60.9 µM [cytotoxic, partial curve]
Potency [10]: active: 54.3 µM
ratio activity, negative = inhibition [5]: inconclusive: 7.42% and inconclusive: 0.439%

O=S1(=O)OCC2C(CO1)C1(Cl)C(Cl)=C(Cl)C2(Cl)C1(Cl)Cl (stereo not given)
Potency [1]: inconclusive: 68.6 µM [cytotoxic, single point]
Potency [2]: active: 54.5 µM
Potency [6]: active: 48.6 µM
activation [7]: inconclusive: -9.69% [phenotype inactive]
Potency [8]: inconclusive: 49 µM [cytotoxic, partial curve]
Potency [12, 16]: inconclusive: 68.6 µM
Potency [10]: active: 61.1 µM

C[C@@H]1C[C@@H]([C@H](O)CC2CC(=O)NC(=O)C2)C(=O)[C@@H](C)C1
Potency [1]: inconclusive: 0.608 µM [cytotoxic, partial curve, poor fit]
Potency [2]: inconclusive: 0.608 µM [cytotoxic, full curve]
Potency [7]: inconclusive: 211 nM [inhibitor, partial curve, poor fit]
Potency (Aromatase (Homo sapiens)): active: 750 nM and active: 383 nM
Potency [10]: inconclusive: 15 µM [cytotoxic, partial curve, poor fit] and inconclusive: 6.82 µM [cytotoxic, full curve]
Potency [14]: inconclusive: 1.19 µM [falling, full curve] and inconclusive: 1.08 µM [falling, full curve]
Potency [15]: inactive
ratio activity, negative = inhibition [5]: inconclusive: -34.8% and inconclusive: -21.9%

CN(C)c1ccc(N=O)cc1
Potency [1]: active: 54.6 µM and active: 27.3 µM
Potency [2]: active: 3.87 µM and active: 9.69 µM
Potency [7]: active: 13.7 µM and inconclusive: 27.3 µM [activator, partial curve, poor fit]
Potency [3]: inconclusive: 55.1 µM [fluorescent, partial curve, poor fit] and inconclusive: 13.8 µM [activator, full curve]
Potency [8]: inconclusive: 49.1 µM [cytotoxic, partial curve]
Potency [11]: inconclusive: 68.8 µM [inhibitor, single point] and active: 12.2 µM
Potency [13]: inconclusive: 68.8 µM [cytotoxic] and inconclusive: 68.6 µM [cytotoxic, single point]
Potency [9]: active: 21.8 µM and active: 21.7 µM
Potency [15]: inconclusive: 19.6 µM [activator, partial curve] and inconclusive: 19.5 µM [activator, partial curve]

CCOP(=S)(OCC)SCn1nnc2ccccc2c1=O
Potency [1]: active: 61.1 µM
Potency [2]: inconclusive: 68.6 µM [cytotoxic, single point]
Potency [7]: inactive
Potency [3]: inconclusive: 54.9 µM
Potency [8]: active: 49 µM
Potency [4]: active: 19.5 µM [inconclusive]
Potency [11]: inconclusive: 43.3 µM [inhibitor, partial curve]
Potency [12, 16]: inconclusive: 27.3 µM [falling, partial curve]
Potency [13]: inconclusive: 61.1 µM [cytotoxic]
Potency [14]: inconclusive: 30.6 µM [falling, single point]
Potency [5]: inconclusive: 21.9 µM

S=C(SSC(=S)N1CCCCC1)N1CCCCC1
Potency [1]: active: 1.06 µM
activation [7]: inconclusive: -10.3% [phenotype inactive]
Potency [13]: inconclusive: 7.5 µM [rising, full curve]
activation [15]: inconclusive: 14.4%
Potency [5]: inconclusive: 0.106 µM [activator]

CCCCCCCCn1sccc1=O
Potency [1]: inconclusive: 68.7 µM [cytotoxic, single point]
Potency [7]: inconclusive: 3.07 µM [inhibitor, partial curve, poor fit] and inconclusive: 2.27 µM [inhibitor, partial curve, poor fit]
Potency [8]: active: 55.1 µM and active: 51.3 µM
Potency [11]: inconclusive: 68.7 µM [inhibitor] and inconclusive: 64.1 µM [inhibitor, partial curve]
activity change, negative = inhibition [12, 16]: inconclusive: -3.96% [at 95 µM]
activity change, negative = inhibition ([12]; at 70.3 µM (top of the series)): inactive: -13.3%
Potency [10]: active: 12.2 µM and active: 40.4 µM
activation [15]: inconclusive: -14.1%
